# Data taken from ChEMBL document CHEMBL5308541, “MAIP: An Open-Source Tool to Enrich High-Throughput Screening Output and Identify Novel, Druglike Molecules with Antimalarial Activity” (ACS Med Chem Lett, 2023).
# The whole screen tested about 150,000 compounds, of which about 540 (0.36%) showed an effect of 50% or more. This is one part of the list.
# Test system: Plasmodium falciparum
# Assay: Primary screen in NF54 nanoGlo assay, in single point, at 2uM, 72h; a lower Z score goes with more inhibition
# Assay type: functional, Erythrocyte
# Conditions: timepoint 72 hour
SMILES,% Inhibition [%],Z score
Cc1nccn1-c1cncc(NCc2ccnc(OC(C)C)c2)n1,4,-0.9
Cc1cc(C(=O)N[C@@H](CO)c2ccccc2C(F)(F)F)oc1C,-5,1.01
Cc1cc(N2CCC(CNc3nc4cnccc4s3)CC2)ccn1,10,-1.59
c1ccc2c(Nc3ccc4[nH]cnc4c3)c3ccccc3nc2c1,98,-19.44
c1cc(N2CCOCC2)nc(C2CCN(CC34CNCC3C4)CC2)n1 (stereo unspecified),-8,1.26
Cc1nc(-c2ccc(C(=O)Nc3ccc(-c4nc5c(Cl)cccc5[nH]4)cc3)cc2)no1,-11,1.72
Cc1cc(CNC2CCN(CC3CC3)CC2)nc(N2CCCC2)n1,-3,0.57
Cc1occc1-c1cc(NC(=O)N2CCC(O)(C(F)(F)F)CC2)no1,-2,0.31
Cc1cccc(-c2cccc(N3CCC(NCc4cc(C)[nH]n4)CC3)c2)c1,-7,1.27
Cc1cc(N[C@@H](C)c2nc(C3CC3)no2)nc(Nc2cccc(O)c2)n1,8,-1.39
O=C([C@@H]1CC[C@H](Nc2ccnc3ccncc23)C1)N1CCCC1,-7,1
O=C(c1cnc(OCC2CC2)cn1)N1CC[C@H](Nc2ccc3nccn3n2)C1,-7,1.13
COCCn1ccc2cc(Nc3nccc(C)n3)ccc21,-3,0.61
Clc1ccc2[nH]c(CCNc3nccc(-c4ccncc4)n3)nc2c1,6,-1.32
CNc1ncccc1C(=O)N1CCN(Cc2ccoc2)[C@@H](CCO)C1,-11,1.83
CN1CCN(c2ncccc2CNc2ccc(OC(F)F)cn2)CC1,4,-0.76
COc1ccc(-c2ccc(C3CCNCC3)cc2C)cn1,7,-1.21
Cc1nc2ccc(C(=O)NCCc3noc(C4CC4)n3)cc2o1,-2,0.47
COc1ccc(S(=O)(=O)N(C)C(=O)c2cnn3c2CCCC3)cc1,3,-0.41
CCn1cncc1CNC(=O)c1cccc(-c2cc(NC(C)C)ncn2)c1,0,-0.07
CN1CCN(CC2CCN(C(=O)Nc3ccccc3N(C)C3CCCC3)CC2)CC1,-2,0.34

SMILES,% Inhibition [%],Z score
N#Cc1ccc(CN2CCC(Nc3ccc4[nH]nnc4c3)CC2)cc1,-9,1.54
COc1cc2nc(NCc3c[nH]nc3C)sc2cc1OC,4,-0.95
c1ccc2[nH]c(CCNc3cc(N4CCOCC4)ncn3)cc2c1,-16,2.71
c1ccc(-c2noc([C@@]34CCC[C@@H]3CN(CCCN3CCOCC3)C4)n2)cc1,-9,1.35
Nc1ccc2c(ccn2Cc2ccc(Cl)cc2)c1,0,0
O=C(Cc1cc(F)c(F)cc1F)Nc1ccc2[nH]ccc2c1,-4,0.69
CCN(CC)CCN1CCC(S(=O)(=O)N2CCCC2)CC1,5,-0.85
CC(c1ccc(OC(F)(F)F)cc1)N(C)C1CCN(C2CCN(C)CC2)C1 (stereo unspecified),7,-1.44
COCCN1CCC[C@H](CNc2ccc(-c3ccccc3)nn2)C1,-1,0.21
Cc1cc(N[C@@H](CO)c2ccccc2)nc(N(C)C)n1,-19,3.27
CC(C)COc1ccccc1-c1cc(N2CCN(C)CC2)nc(N)n1,-2,0.36
CC(C)Cc1noc(CN(C)C(=O)NCc2cncn2C2CC2)n1,3,-0.73
Cc1ccc(NC(=O)Nc2cccc3c2CCN(C(=O)C2CCOCC2)C3)cc1,-5,1.09
Cc1cccc2[nH]c(C3CCN(C(=O)[C@@H]4CC5(CCNCC5)CN4)CC3)nc12,0,0.01
O=C(Nc1cn(Cc2ccccc2)nn1)N1CCCC[C@H]1C(F)F,0,0.05
COC(CN(Cc1nc(N)nc(Nc2ccc(C)cc2)n1)Cc1nc(N)nc(Nc2ccc(C)cc2)n1)OC,85,-18.33
Cc1nccn1-c1ccc(NC(=O)[C@H]2CCCN(Cc3nc4cc(F)ccc4[nH]3)C2)cc1,-5,0.81
CNC(=O)[C@@H]1CC2(CCN(CC3CCCCC3)CC2)CN1c1ccc(C#N)c(C(F)(F)F)c1,-15,2.59
N#Cc1ccc(N2CCC(O)(c3cccc4cnccc34)CC2)nc1,-12,2.12
CC(C)CC(C(=O)NC1CCN(CC(=O)Nc2ccccc2)CC1)N1C(=O)C2CC=CCC2C1=O (stereo unspecified),-4,0.54
N#CC1CCCC(NCCCn2cccn2)C1 (stereo unspecified),7,-1.3

SMILES,% Inhibition [%],Z score
COc1ccc2occ(C(=O)N[C@H]3CCO[C@@H]3c3cccnc3)c2c1,7,-1.24
COc1ccc2[nH]c(CN(Cc3cccnc3)CC3CCN(C4CCCC4)CC3)c(C)c2c1,1,-0.23
CCc1cc(=O)[nH]c(Nc2ccc(N3CCN(C)CC3)cc2)n1,-5,0.78
COc1ccnc(NC2CCN(Cc3cccc(O)c3)CC2)n1,2,-0.29
O=C(NCC1CCCCC1)c1cn2cc(-c3ccc(Oc4ccccc4)cc3)ccc2n1,2,-0.31
CN1CCN(CCCCNC2CC3CCC(C2)N3Cc2ccccc2)CC1 (stereo unspecified),45,-9.76
CN1CCN(C[C@H]2CCCN(Cc3cnc(-c4ccccn4)nc3)C2)CC1,4,-0.67
Cc1cc(F)cc2[nH]c(C(=O)N3CC[C@H](Nc4ncccn4)C3)cc12,-2,0.3
CC1CN(Cc2cccc(-c3cnn(C)c3)c2)CC(C)N1 (stereo unspecified),0,0.02
Cc1cc(N2CCC(N(C)Cc3nc4ccc(F)cc4[nH]3)CC2)ncn1,-13,2.24
COc1ccc(N2CCN(CCCNCc3cc(Cl)c4c(c3)OCCCO4)CC2)cc1,6,-1.2
CN1CCN(CCCNC(=O)c2cccc(-c3cn[nH]c3)c2)CC1,7,-1.15
CC(=O)N1CCN(c2cccc(NC3CCN(Cc4ccncc4)CC3)c2)CC1,0,-0.06
CN1CCN(CCOc2ccccc2C2NC(C)(CO)C3CN(C)CC23)CC1 (stereo unspecified),-6,1.06
O=c1cc(C2CCN(Cc3ccccc3OCCCN3CCCCC3)CC2)cc[nH]1,7,-1.44
Cn1cc(-c2ccccc2CNc2nccc(C(F)(F)F)n2)cn1,6,-1.08
CCc1c(C)nc(N)nc1NCCCOC1CCN(C)CC1,2,-0.44
COc1ccc2[nH]cc(CC(=O)N[C@@H](C)CN3CCN(c4ccccn4)CC3)c2c1,10,-1.52
Cn1cc(Nc2cccc(C(=O)NCCCn3ccc4ccccc43)c2)cn1,12,-2.58
CC(C)([C@H](NCc1ccc2c[nH]nc2c1)c1ccc(F)c(F)c1)N1CCCC1,-1,0.15
FC(F)(F)c1ccnc(Nc2ccc(N3CCOCC3)nc2)n1,4,-0.54

SMILES,% Inhibition [%],Z score
OCCOC1CCN(c2ccnc3cc(C(F)(F)F)ccc23)CC1,-11,1.99
CN(CCNc1cc([C@H]2CCOC2)ncn1)C(=O)Cc1c[nH]c2ccccc12,9,-1.63
Cc1cc(-c2nn(C)c(Cl)c2CN(C)Cc2cccc3cccnc23)no1,-13,1.9
Nc1nc(C2CC(O)C2)cc(N2CCC(O)(c3cccnc3)CC2)n1 (stereo unspecified),5,-0.86
Cn1cc(-c2csc(CNc3ccc(N4CCC(CO)CC4)cn3)n2)cn1,-14,2.55
O=C(NCc1ccc(N2CCNCC2)c(F)c1)c1ccc(-c2noc(C(F)(F)F)n2)cc1,67,-11.53
CC(C)=CCN1CCC(NCC2(N3CCCCC3)CCOCC2)CC1,3,-0.59
CCN(CC1CCN(C2CCN(C)CC2)CC1)C(=O)c1ccc(C#CC(C)(C)O)cc1,-4,0.65
COc1cccc2ncn(CCNc3ccncc3C)c(=O)c12,-3,0.53
O=C(CN1CCN(CN2C(=O)N[C@H](c3ccccc3OC(F)(F)F)C2=O)CC1)N1CCCCC1,-13,2.25
COCCN(CC(F)F)C(=O)c1csc2ccccc12,-7,1.21
CCOc1cc(NC2CCN(C(=O)N[C@H]3CC(C)(C)Oc4cc(F)ccc43)CC2)ncn1,-6,1.19
O=C(C1CC=CC1)N1CCC(O)(c2ccccc2Cl)CC1,-4,0.66
N#CCC1(O)CCN(C(=O)NC2CCN(c3ccccc3Br)C2)C1 (stereo unspecified),-4,0.77
CN1CCN(CCCN(C)C(=O)c2csc(-c3cc4ccccc4o3)n2)CC1,-2,0.42
N#Cc1cccc(-c2c[nH]c(CNC(=O)c3ccccc3-c3ncc(-c4ccccc4)o3)n2)c1,-12,2.31
CCN1CCN(c2cccc(NC3CC(C)OC(C)C3)c2)CC1 (stereo unspecified),-12,2.48
O[C@@H](CNc1ncnc2sccc12)CN1CCc2ccccc2C1,-10,1.69
CC(=O)N1[C@@H]2CC[C@H]1CC(OC1CCN(Cc3ccc(OC(F)(F)F)cc3)CC1)C2 (stereo partly specified),-8,1.46
O=C(CN1CCN(c2cc(NC3CC3)ncn2)CC1)N1CCCCCC1,2,-0.28
